# In all, about 310,000 compounds went through this assay and about 14,000 (4.5%) showed an effect of 50% or more. Effects have a minus sign here. The list shows a part of the results.
# Target: human ether-à-go-go-related gene (hERG) potassium channel (human, UniProt Q12809)
# Assay: primary screen, population patch clamp on CHO cells stably expressing hERG
# 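Also: peak tail current of the secondary pulse compared with the same well before compound.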
# human ether-à-go-go-related gene (hERG) potassium channel, sequence (Q12809 whole entry, looked up): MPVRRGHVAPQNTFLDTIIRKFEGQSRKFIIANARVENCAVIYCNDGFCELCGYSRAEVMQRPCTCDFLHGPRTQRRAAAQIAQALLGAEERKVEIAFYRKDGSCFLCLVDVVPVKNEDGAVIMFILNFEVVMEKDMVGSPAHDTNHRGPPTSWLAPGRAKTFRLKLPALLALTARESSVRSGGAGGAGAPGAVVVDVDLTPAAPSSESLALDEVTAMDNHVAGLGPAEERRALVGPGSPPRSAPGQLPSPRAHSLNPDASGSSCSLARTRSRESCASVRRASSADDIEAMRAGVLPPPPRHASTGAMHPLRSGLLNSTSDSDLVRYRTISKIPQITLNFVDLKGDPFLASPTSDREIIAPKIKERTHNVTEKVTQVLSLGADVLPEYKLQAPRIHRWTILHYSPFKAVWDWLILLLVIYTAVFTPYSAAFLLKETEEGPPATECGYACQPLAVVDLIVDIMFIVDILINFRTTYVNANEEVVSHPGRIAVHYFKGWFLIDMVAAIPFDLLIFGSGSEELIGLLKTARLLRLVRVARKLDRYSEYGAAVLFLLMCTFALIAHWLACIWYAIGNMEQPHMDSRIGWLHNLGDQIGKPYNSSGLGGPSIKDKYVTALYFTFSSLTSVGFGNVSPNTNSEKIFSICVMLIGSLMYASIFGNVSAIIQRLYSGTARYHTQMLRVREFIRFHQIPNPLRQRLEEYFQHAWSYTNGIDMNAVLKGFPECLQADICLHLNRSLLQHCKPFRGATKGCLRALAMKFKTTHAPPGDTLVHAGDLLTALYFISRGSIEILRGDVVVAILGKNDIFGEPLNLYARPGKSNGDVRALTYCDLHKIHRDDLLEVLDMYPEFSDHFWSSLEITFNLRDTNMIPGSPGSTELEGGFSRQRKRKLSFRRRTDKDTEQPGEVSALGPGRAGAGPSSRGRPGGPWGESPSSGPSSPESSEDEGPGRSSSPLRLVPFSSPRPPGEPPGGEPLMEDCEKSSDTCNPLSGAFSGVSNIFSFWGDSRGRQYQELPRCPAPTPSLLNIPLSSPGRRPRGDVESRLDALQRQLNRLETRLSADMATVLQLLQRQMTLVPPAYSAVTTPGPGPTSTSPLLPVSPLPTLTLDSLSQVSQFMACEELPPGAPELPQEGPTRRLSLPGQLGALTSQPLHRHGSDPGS
row,Structure (SMILES),"hERG current change (%, negative = inhibition) at 10uM [%]"
1,O=C(NCc1ccc(F)cc1)c1cnc2n(c1=O)CCS2,-6.18
2,Cc1cc(C)c2nc(SCC(=O)N3CC(=O)Nc4ccccc43)c(C#N)cc2c1,18.5
3,COc1ccc(CCNC(=O)CSc2cccc3cccnc23)cc1OC,-5.27
4,CN(C)CCn1c(=N)n(CC(O)c2ccc(Cl)c(Cl)c2)c2ccccc21.Cl (stereo not drawn),-66.1
5,CC(=O)Oc1ccc2nc(-c3ccco3)oc(=O)c2c1,-1.95
6,CC(C)(C)NC(=O)NC(=O)CSc1ccc(S(=O)(=O)N2CCCCC2)cn1,-13.5
7,C=CCNc1oc(/C=C/c2ccccc2)nc1C#N,-28
8,COc1cccc(CN(C(=O)c2cc3ccccc3oc2=O)C2CCS(=O)(=O)C2)c1 (stereo not drawn),18
9,Cc1cc(NC(=O)CCC(=O)N(Cc2ccco2)C2(C(=O)NC3CCCC3)CCCCC2C)no1 (stereo not drawn),-7.43
10,O=C1c2cccc3cccc(c23)C(=O)N1CCN1CCN(C(=S)Nc2ccc(Cl)cc2)CC1,16.4
11,Cc1cc(NS(=O)(=O)c2ccc(NC(=O)CSc3nnc(-c4ccco4)n3C)cc2)nc(C)n1,5.75
12,C/C(CC(=O)NCc1ccco1)=N\NC(=O)c1ccc(Cl)cc1Cl,8.44
13,N#C/C(=C1/CCCCCN1)c1nc2ccccc2[nH]1,3.51
14,O=C(O)Cn1c(=O)c2c3c(sc2n(Cc2ccccc2)c1=O)CCCC3,16.6
15,CC(C)CSC1=NSC2=NC(=O)/C(=C\c3coc4ccccc4c3=O)C(=N)N12,16.7
16,CCOc1ccc(N2CC(=O)N(c3ccc(OCC)cc3)CC2=O)cc1,-20.1
17,Nc1nc(-c2cccnc2)nn1S(=O)(=O)c1ccccc1,1.61
18,Cc1ccc2nc(/C(C#N)=C\c3ccc(Oc4ccc([N+](=O)[O-])cn4)cc3)[nH]c2c1,1.61
19,COc1cc2c(=O)c(-c3ccc(O)cc3)coc2cc1OC1OC(CO)C(O)C(O)C1O (stereo not drawn),20.3
20,Cc1ccc2c(c1)C(c1ccccc1)N(C(=O)c1ccc(Br)o1)CC(=O)N2 (stereo not drawn),-56.9
21,CN(C)CCCN(C(=O)c1ccco1)c1nc2c(F)cccc2s1.Cl,-73.2
22,O=C(Nc1ncccc1O)c1ccc(S(=O)(=O)N2CCCC2)cc1,4.44

row,Structure (SMILES),"hERG current change (%, negative = inhibition) at 10uM [%]"
1,CCOc1cccc(-c2nn3c(-c4cc(C)[nH]n4)nnc3s2)c1,-58.2
2,CN(Cc1ccccn1)Cc1nc(Cc2ccccc2Cl)no1,-40.4
3,COc1cccc(SCc2noc(C(=O)NCC3CC3)c2C(=O)NCC2CC2)c1,-43.5
4,COCc1ccc(C(=O)N(C)CC2CCCN(CCc3ccccc3F)C2)o1 (stereo not drawn),-41
5,c1nc(NC2CCCCC2)c2[nH]cnc2n1,-3.86
6,COc1ccc(N(CC(=O)NCCSc2ccccn2)S(C)(=O)=O)cc1Cl,-8.86
7,O=C(Cc1ccccc1)c1ccc(Cl)cc1,14.7
8,CCn1c(CNC(=O)c2ccco2)nnc1SCC(=O)c1ccc(F)cc1,9.43
9,COc1ccc(C(c2nnnn2Cc2ccccc2)N2CCN(c3nc4ccccc4s3)CC2)cc1OC.Cl (stereo not drawn),-58.4
10,Cc1ccc(NC(=S)NNC(=O)c2nn(C)c(C)c2Cl)cc1,8.07
11,O=C(O)Cc1ccc(NC(=O)COc2ccc3ccccc3c2)cc1,8.25
12,COc1cc(C(=O)N/C(=C\c2cn(C)c3ccccc23)C(=O)NCCCn2ccnc2)cc(OC)c1OC,11
13,CCCCOc1ccc(-c2c(C#N)c(N)[nH]c(=S)c2C#N)cc1,15.8
14,C=CCN1C(=O)C2(NC(=O)c3ccccc3N2)c2ccccc21 (stereo not drawn),13.9
15,Cc1cccc(C)c1NC1=NCCCCS1,-5.62
16,CN(Cc1nc2ccccc2c(=O)[nH]1)CC(O)COCc1ccco1 (stereo not drawn),-13.9
17,Cc1ccc(C2C(=O)N(C3CCC(C)CC3)CC(=O)N2C2CC2)cc1 (stereo not drawn),-24.6
18,CCOC(=O)N1CCN(C(c2ccc(F)cc2)c2sc3nc(C)nn3c2O)CC1 (stereo not drawn),-15.1
19,COc1ccccc1OCCn1ccnc1,20
20,CC(=O)c1cccc(NC(=O)c2ccncc2)c1,-8.77
21,COc1cccc(NC(=S)N(Cc2ccccn2)Cc2ccccc2Cl)c1,5.73
22,Cc1ccc(CNC(=O)C2CN(S(C)(=O)=O)c3cc(Cl)ccc3O2)cc1 (stereo not drawn),-11

row,Structure (SMILES),"hERG current change (%, negative = inhibition) at 10uM [%]"
1,O=C(CCNC(=O)c1ccc(Br)cc1)NNC(=O)c1ccccc1O,14
2,CCCSC1=C(C#N)C(c2ccccc2C)C(C(=O)OC)C(=O)N1 (stereo not drawn),-6.56
3,CCOc1ccc(NC(=O)CN2C(=O)NC(CCSC)C2=O)cc1 (stereo not drawn),9.3
4,Oc1ccc(C[C@H]2CNCCN2CC2CCCCC2)cc1,-7.3
5,Cc1ccc(Cn2nnc3c(=O)[nH]c(C4CCN(C(=O)c5cccs5)CC4)nc32)cc1,-33
6,OC(C#CCN1CCCC1)(c1ccccc1)c1cccc(F)c1 (stereo not drawn),-16.7
7,COc1cccc(CN2CCC(n3nccc3NC(=O)CCOc3ccccc3)CC2)c1O,-61.5
8,CCCC(NS(=O)(=O)c1ccc(Br)cc1)C(=O)O (stereo not drawn),-9.92
9,C[C@H](/C=C/[C@@]1(O)[C@H](C)C[C@H](O)CC1(C)C)O[C@@H]1O[C@H](CO)[C@@H](O)[C@H](O)[C@H]1O,18
10,NC(=O)C1=C[C@H](c2ccccc2)C[C@H](OCc2ccc(CO)cc2)O1,-0.899
11,CN(Cc1cccc(F)c1)CC(O)COCc1ccccc1Cl (stereo not drawn),-34.8
12,CCOC(=O)N1CCN(Cc2nc3c(c(=O)n(C)c(=O)n3C)n2CCCc2ccccc2)CC1,-35.7
13,O=C1COCCOCCOCCOCC(=O)NCCN1,19.8
14,COc1ccc(Nc2nc(C)nc3c2oc2ccccc23)c(OC)c1,3.49
15,Cc1ccc2sc(N(CCN(C)C)C(=O)/C=C/c3cccs3)nc2c1C.Cl,11.8
16,Clc1ccccc1CN(Cc1ccccc1)c1ncnc2nc[nH]c12,16.6
17,CCc1ccc(NC(=O)c2ccccc2SC)cc1,-10.5
18,COc1cccc(C(=O)Nc2cccc(OCC(=O)O)c2)c1,3.97
19,CN(C(=S)Nc1ccc(Oc2ccccc2)cc1)c1ccc(O)cc1,-6.93
20,COc1ccc(N2CCN(C(=O)COC(=O)c3ccc(Cl)nc3)CC2)cc1,6.01
21,COc1ccc(OC)c(-c2csc(N(CC3CCCO3)C(=O)Cc3ccccc3)n2)c1 (stereo not drawn),18.2
22,O=C(NCc1cccs1)c1ccc(N2CCCCC2)nc1,-6.3

row,Structure (SMILES),"hERG current change (%, negative = inhibition) at 10uM [%]"
1,O=C(c1cc(S(=O)(=O)N2CCCCC2)ccc1N1CCOCC1)N1CCN(Cc2ccccc2)CC1,3.27
2,COc1ccc2nc3sc(C(=O)NCCN4CCc5ccccc5C4)cc3cc2c1,-49.2
3,Cc1ccc(-n2nc3c(=O)n(CCCC(=O)NCc4ccc(Cl)cc4)nc(C)c3c2C)cc1,4.82
4,CC(C)c1ccc(C(=O)NNC(=O)C2C3CCC(C3)C2C(=O)O)cc1 (stereo not drawn),-12.6
5,Cc1ccc(NC(=O)CS(=O)CC(=O)NCC2OCCc3ccccc32)c(C)c1 (stereo not drawn),9.09
6,COc1ccc(C2=NS(=O)(=O)N(C)C(C(=O)Nc3cc(C)ccc3O)=C2)cc1OC,-11.6
7,O=C(CSc1nnnn1-c1cccc2c1CCCC2)N1CCCCC1,-26.5
8,CN(C)S(=O)(=O)c1ccc(N2CCCC2)c(C(=O)Nc2ccccc2Br)c1,-58.3
9,COc1ccc(NC(=O)c2ccc3[nH]c(C)c(C)c3c2)cc1,15.4
10,O=C(NCc1cn2ccccc2n1)c1ccc2c(c1)OCO2,11.5
11,CS(=O)(=O)N(CC(=O)N/N=C/c1cc2c(cc1Br)OCO2)c1ccccc1Br,-5.31
12,Nc1nc(Nc2ccccc2F)nc(NCc2ccccc2)c1[N+](=O)[O-],6.87
13,O=C(CCl)N(Cc1cc(=O)[nH]c2ccccc12)c1ccccc1,0.288
14,N#Cc1c(-c2ccccc2)nc(SCC(=O)Nc2ccccc2)[nH]c1=O,14.4
15,CC1(C)COC(c2cc([N+](=O)[O-])ccc2Cl)=N1,7.81
16,CC(=O)Nc1ccc(S(=O)(=O)NCCOc2ccc(Cl)cc2C)cc1,-6.33
17,COc1cccc(CNC(=O)CCC2CCCN(C(=O)c3cccnc3SC)C2)c1 (stereo not drawn),7.1
18,Cc1cc(C)c(C#N)c(N2CCN(Cc3ccccc3)CC2)n1,-24.3
19,Cc1ccccc1CCN(C(=O)c1csnn1)C(C(=O)NC1CCCC1)c1ccco1 (stereo not drawn),-9.55
20,Cc1ccc(C(=O)Nc2cccc(S(=O)(=O)N3CCCCC3)c2)cc1[N+](=O)[O-],-7.47
21,CC(=O)c1sc(N/N=C/c2ccc(C(C)C)cc2)nc1C,21.3

# — publication PMC4336329 (PLoS ONE, 2015)
